Measurements published in the supplement of paper PMC4967469.

What was measured:
Assay in all cases: Viability of human cancer cell lines after 72 h of drug (GDSC screen)
GSK690693 = compound: CCn1c(-c2nonc2N)nc2c(C#CC(C)(C)O)ncc(OC[C@H]3CCCNC3)c21 [GSK690693]; settings: top dose 10.24 µM; top dose inferred
Method: (§1)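 Human cancer cell lines in 384-well plates, medium with 10% serum, drug for 72 h over a 256-fold dose range (nine 2-fold or five 4-fold steps up to the top dose). Adherent lines were fixed and stained with the nucleic acid dye Syto60, suspension lines read with resazurin; signal relative to control wells, capped at 0 and 100%. One two-parameter sigmoid per drug and line, fitted in a mixed model over all curves with the slope shared within a line.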

UNC0638 = compound: COc1cc2c(NC3CCN(C(C)C)CC3)nc(C3CCCCC3)nc2cc1OCCCN1CCCC1 [UNC0638]
Method: as §1

SB-505124 = compound: Cc1cccc(-c2[nH]c(C(C)(C)C)nc2-c2ccc3c(c2)OCO3)n1 [SB-505124]; settings: top dose 10 µM; top dose inferred
Method: as §1

PI-103 = compound: Oc1cccc(-c2nc(N3CCOCC3)c3oc4ncccc4c3n2)c1 [PI-103]; settings: top dose 10.24 µM
Method: as §1

[1] = top dose 20 µM, screen: GDSC drug entry 1236, top dose inferred
[2] = top dose 40 µM, screen: GDSC drug entry 245

Cell Line | AUC (GSK690693) | IC50 (GSK690693) [µM] | AUC (UNC0638; [1]) | IC50 (UNC0638; [1]) [µM] | AUC (UNC0638; [2]) | IC50 (UNC0638; [2]) [µM] | AUC (SB-505124) | IC50 (SB-505124) [µM] | AUC (PI-103) | IC50 (PI-103) [µM]
HO-1-N-1 (head and neck, adherent) | 0.988 | > 10.2 | 0.948 | > 20 | 0.867 | 31.1 | 0.987 | > 10 | 0.871 | 8.31
HPAC (pancreas, adherent) | 0.975 | > 10.2 | 0.965 | > 20 | 0.91 | > 40 | 0.9 | > 10 | 0.97 | > 10.2
HPAF-II (pancreas, adherent) | 0.979 | > 10.2 | 0.923 | > 20 | 0.902 | > 40 | 0.915 | > 10 | 0.906 | > 10.2
HSC-3 (head and neck, adherent) | 0.99 | > 10.2 | 0.735 | 5.19 | 0.867 | 27.6 | 0.968 | > 10 | 0.888 | 8.65
HTC-C3 (thyroid, adherent) | 0.979 | > 10.2 | 0.904 | > 20 | 0.896 | > 40 | 0.982 | > 10 | 0.453 | 0.47
Hs940-T (melanoma, adherent) | 0.979 | > 10.2 | 0.981 | > 20 | 0.93 | > 40 | 0.965 | > 10 | 0.6 | 1.28
IM-95 (stomach, adherent) | 0.741 | 3.32 | 0.969 | > 20 | 0.801 | 21.1 | 0.984 | > 10 | 0.9 | > 10.2
J82 (bladder, adherent) | 0.979 | > 10.2 | 0.853 | 15.5 | 0.866 | 35.5 | 0.987 | > 10 | 0.839 | 6.93
KOSC-2 (head and neck, adherent) | 0.984 | > 10.2 | 0.703 | 4.8 | 0.839 | 29 | 0.94 | > 10 | 0.642 | 1.61
KP-4 (pancreas, adherent) | 0.899 | > 10.2 | 0.978 | > 20 | 0.904 | > 40 | 0.986 | > 10 | 0.539 | 0.816
KYSE-180 (oesophagus, adherent) | 0.963 | > 10.2 | 0.782 | 7.97 | 0.693 | 8.48 | 0.979 | > 10 | 0.801 | 4.74
LU-99A (large cell lung carcinoma, adherent) | 0.985 | > 10.2 | 0.815 | 10.8 | 0.779 | 16.1 | 0.986 | > 10 | 0.924 | > 10.2

Lines with a small IC50 respond at low doses; a limit (>, <) means that the fit lies beyond the doses tested. For AUC the same curve is integrated over the 256-fold range of doses and scaled to a fraction; values near 1 show little effect. For part of these data: Any top dose called inferred comes from the curve model; the source does not state it. For part of these data: Drugs with an entry number were screened twice under separate entries, and the two screens often disagree.
